The other results are listed elsewhere or left out. The full chains were built here from the parent and the listed change. Inactive controls read about 0.05.
B1: TEV protease; numbered along this chain (parent)
chain: MGESLFKGPRDYNPISSSICHLTNESDGHTTSLYGIGFGPFIITNKHLFRRNNGTLVVQSLHGVFKVKDTTTLQQHLVDGRDMIIIRMPKDFPPFPQKLKFREPQREERICLVTTNFQTKSMSSMVSDTSCTFPSGDGIFWKHWIQTKDGQCGSPLVSTRDGFIVGIHSASNFTNTNNYFTSVPKNFMELLTNQEAQQWVSGWRLNADSVLWGGHKVFMVKPEEPFQPVKEATQL

Variants of: B1
Assay: raw area under fraction-flipped curve 0-4 h after induction (AUC4h, not background-subtracted), DNA-recorder readout of cleavage of the substrate (dimensionless); higher = more cleavage of the substrate by the protease variant
Settings: temperature: 34 °C; time window: 0-4 h after rhamnose induction
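Also: Bxb1 expression induced with 0.2% (w/v) L-rhamnose at OD600 near 0.5, cultures sampled hourly, flipped fraction per protease–substrate barcode pair counted by paired-end Illumina sequencing.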

| Variant | area with substrate CNLYFQS | area with substrate GNLYFQS | area with substrate INLYFQS | area with substrate KNLYFQS | area with substrate MNLYFQS | area with substrate NNLYFQS | area with substrate PNLYFQS | area with substrate QNLYFQS | area with substrate RNLYFQS | area with substrate TNLYFQS |
| --- | --- | --- | --- | --- | --- | --- | --- | --- | --- | --- |
| F133R | 0.0816 | 0.0884 | 0.0737 | 0.0826 | 0.103 | 0.0641 | 0.0594 | 0.0732 | 0.0711 | 0.0819 |
| V157P | 0.0445 |  |  |  | 0.0502 | 0.0359 | 0.0372 |  |  | 0.0541 |
| V210R | 0.0552 | 0.0633 | 0.0611 | 0.0515 | 0.0385 | 0.0508 | 0.0308 |  |  | 0.0618 |
| L211A | 0.0078 | 0.0635 |  |  | 0.0323 |  |  |  |  | 0.0609 |
| G80S | 0.0611 | 0.0699 | 0.0425 |  |  | 0.0614 |  |  |  |  |
| D137I | 0.0694 |  |  |  | 0.0721 |  | 0.0707 |  |  | 0.0522 |
| F218W | 0.0539 |  |  |  |  | 0.0496 | 0.0706 | 0.0659 |  | 0.064 |
| C111G |  |  |  |  | 0.0678 |  |  |  |  |  |
| W212R | 0.0588 | 0.0478 |  |  |  |  |  |  |  | 0.0687 |
| G202D | 0.071 | 0.072 | 0.0537 |  | 0.0559 |  |  |  |  |  |
| R160L |  | 0.0643 | 0.0675 |  |  |  |  |  |  |  |
| V78L | 0.0716 |  |  |  | 0.0559 |  |  |  |  | 0.0473 |
| L5V | 0.08 | 0.0811 |  |  |  |  | 0.0765 |  |  | 0.067 |
| Q75V | 0.0676 | 0.0672 | 0.0558 |  | 0.0668 |  |  |  |  |  |
| D91R | 0.0753 | 0.0562 |  | 0.0739 |  |  |  |  |  |  |
| S124H | 0.0711 | 0.0643 | 0.0831 |  | 0.0817 | 0.0828 |  |  |  |  |
| L205I | 0.0871 |  |  |  |  |  |  |  |  |  |
| F173Y | 0.0631 |  | 0.0574 | 0.0772 |  |  | 0.0556 |  |  |  |
| S130K | 0.0716 |  | 0.0584 | 0.0788 | 0.0537 |  | 0.0616 |  |  | 0.0584 |
| P40V | 0.066 | 0.0794 |  | 0.0824 | 0.0772 |  |  |  |  | 0.0687 |
| Q59D | 0.0431 | 0.0602 | 0.0575 |  |  | 0.061 | 0.0669 |  |  |  |
| F6W | 0.0595 |  | 0.058 |  |  |  |  |  |  | 0.0674 |
| F6I | 0.062 |  |  |  |  |  |  | 0.0463 |  | 0.0699 |
| V67I | 0.0682 |  |  | 0.0608 | 0.0719 |  | 0.0521 |  |  | 0.039 |

Same assay, conditions: temperature: 34 °C; time window: 0-4 h after rhamnose induction

| Variant | area with substrate VNLYFQS | area with substrate WNLYFQS | area with substrate YNLYFQS | area with substrate FNLYFQS | area with substrate HNLYFQS | area with substrate LNLYFQS | area with substrate SNLYFQS |
| --- | --- | --- | --- | --- | --- | --- | --- |
| F133R | 0.0727 | 0.0738 | 0.0602 |  |  |  |  |
| V157P | 0.0547 | 0.053 | 0.0478 | 0.0366 | 0.0433 | 0.0494 | 0.0484 |
| V210R |  | 0.0464 | 0.0591 | 0.061 | 0.0516 |  |  |
| L211A | 0.0762 | 0.0593 |  | 0.0629 | 0.0765 |  |  |
| G80S |  |  | 0.0635 |  |  | 0.063 | 0.0711 |
| D137I |  | 0.0645 | 0.0488 | 0.0655 | 0.0532 |  | 0.0533 |
| F218W | 0.0788 |  | 0.0529 |  |  |  |  |
| C111G | 0.0543 | 0.0679 |  |  | 0.0861 | 0.0644 |  |
| W212R |  | 0.056 |  | 0.0484 | 0.0542 | 0.0613 |  |
| G202D |  | 0.0545 | 0.0542 | 0.079 |  |  |  |
| R160L |  | 0.0599 |  |  |  |  |  |
| V78L | 0.077 | 0.0565 | 0.0621 | 0.08 | 0.0743 |  |  |
| L5V |  | 0.0599 | 0.0462 |  | 0.0634 |  |  |
| Q75V |  | 0.0611 |  |  | 0.0754 |  | 0.0057 |
| D91R |  | 0.0465 |  |  | 0.0939 |  | 0.0806 |
| S124H |  |  | 0.0634 | 0.0622 | 0.0646 | 0.0885 | 0.078 |
| G8Y |  |  |  |  |  | 0.0895 |  |
| L205I |  |  |  | 0.0511 | 0.0683 |  |  |
| F173Y |  | 0.0665 |  |  | 0.0623 | 0.0621 | 0.0585 |
| S130K | 0.0616 | 0.0552 |  | 0.0558 | 0.0588 | 0.0743 | 0.0597 |
| P40V | 0.067 | 0.0544 | 0.0685 | 0.0505 | 0.0609 | 0.0638 | 0.0573 |
| F6W |  | 0.0409 |  | 0.0849 | 0.0574 | 0.057 |  |
| F6I | 0.0796 |  |  |  | 0.055 | 0.0659 | 0.0517 |
| V67I |  | 0.0791 |  |  | 0.0688 |  |  |

From the supplement of paper PMC12217912
